Test results as given in the RNAGym collection of RNA variant scans (doi:10.1073/pnas.2313332121).
This sample is rich in variants without activity.

B1: TPR 5TU (parent)
chain: GGAUCUUCUCGAUCUAACAAAAAAGACAAAUCUGCCACAAAGCUUGAGAGCAUCUUCGGAUGCAGAGGCGGCAGCCUUCGGUGGCGCGAUAGCGCCAACGUUCUCAACUAUGACACGCAAAACGCGUGCUCCGUUGAAUGGAGUUUAUCAUG

Variants of: B1
Test: polymerase ribozyme fitness, log enrichment relative to wild type (log ratio); higher = more active; in vitro selection for triplet polymerase activity
How it was run: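 After PCR construction and transcription, each subunit's mutant library from a heterodimeric triplet polymerase ribozyme was annealed with a biotinylated primer, the partner subunit and triplets. Incubation was frozen, at −7 °C, and extended constructs were gel-excised, bound to streptavidin beads and amplified by RT-PCR, in one selection round done in triplicate. Fitness is the logarithm of a genotype's enrichment divided by that of the wild type, from inverse-variance-weighted replicate averages of Illumina-sequenced inputs and outputs. The base of the logarithm is 2, and genotypes needed ≥10 input reads and ≥1 read per output.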

Polymerase ribozyme fitness (log ratio), ≤ -4.2:
GGAUCUUCUCGAUCUAACAAAAAAGACAAAUCUGCCACAAAGCUUGAGAGCUUCUUCGGAUGCAGAGGCGGCAGCCUUCGGUGGCCCGAUAGCGCCAACGUUCGCAACUAUGACACGCAAAACGCGUGCUCCGUUGAAUGGAGUUUAUCAUG [A52U G86C U104G]
GGAUCUUCUCGAUCUAACAAAAAAGACAAAUCUGCCACAAAGCUUGAGAGCUUCUUCGGAUGCAGAGGCGGCAGCCUUCGGUGGCUCGUUAGCGCCAACGUUCUCAACUAUGACACGCAAAACGCGUGCUCCGUUGAAUGGAGUUUAUCAUG [A52U G86U A89U]
GGAUCUUCUCGAUCUAACAAAAAAGACAAAUCUGCCACAAAGCUUGAGAGCUUCUUCGGAUGCAGAGGCGGCAGCCUUCGGUGGCGCGAUAGCGCCAACGUUCUCAACUAUGACACGCAAAACGCGUGCUCCGUUUAAUGGAGUUUAUCAUG [A52U G136U]
GGAUCUUCUCGAUCUAACAAAAAAGACAAAUCUGCCACAAAGCUUGAGAGCUUCAUCGGAUGCAGAGGCGGCAGCCUUGGGUGGCGCGAUAGUGCCAUCGCUCUCAACUGUGACACGCAAAACGCGUGCUCCGUUGAAUGGAGUUUAUCAUG [A52U U55A C79G C93U A98U U101C A110G]
GGAUCUUCUCGAUCUAACAAAAAAGACAAAUCUGCCACAAAGCUUGAGAGCUUCAUCGGAUGCAGAGGCGGCAGCCUUCGGUGGCGCGAUAGGGCCAACGUUGUCAACUAUGACACGCAAAACGCGUGCUCCGAUGAAUGGAGUUUAUCAAG [A52U U55A C93G C103G U134A U151A]
GGAUCUUCUCGAUCUAACAAAAAAGACAAAUCUGCCACAAAGCUUGAGAGCUUCAUCGGAUGCAGAGGCGGCAGCCUUCGGUGGCGCGAUAGCCCCAACGUUCUCAACUAUGACACGCAAAACGCGUGCUCCGUUGAAUGGCGGUUCUCAUG [A52U U55A G94C A142C U144G A147C]
GGAUCUUCUCGAUCUAACAAAAAAGACAAAUCUGCCACAAAGCUUGAGAGCUUCUACGGAUGCAGAGGCGGCAGCCUUCGGUGGCGCGAUAGGGCUAACGUUCUCAACUAUGACACGCAAAACGCGUGCUCCGUUGAAUGGAGUUUAUCAUG [A52U U56A C93G C96U]
GGAUCUUCUCGAUCUAACAAAAAAGACAAAUCUGCCACAAAGCUUGAGAGCUUCUUCGGAUGCAGAGGCGGCAGCCUUCGGUGGCGCGAUAGCGCCAACGUUCACAACUAUGACACGCAAAGCGCGUGCUCCGUUGAAUGAAGUUUAUCAUG [A52U U104A A122G G141A]
GGAUCUUCUCGAUCUAACAAAAAAGACAAAUCUGCCACAAAGCUUGAGAGCUUCUUCGGAUGCAGAGGCGGCAGCCUUCGGUGGCGCGAUAGCGCCAACGUUCUCAACUAUGACACGCAAAACGCGUGCUCCGUGGAAUGGAGUUUAUCAUG [A52U U135G]
GGAUCUUCUCGAUCUAACAAAAAAGACAAAUCUGCCACAAAGCUUGAGAGCAACUUCGGGUGCAGAGGCGCCAGCCUUCGGUGGGGCGAUAGCGCCAACGUUCUCAAUUGUGACACGCAAAACGCGUGCUCCGUUGAAUGGAGUUUAUCAUG [U53A A60G G71C C85G C108U A110G]
GGAUCUUCUCGAUCUAACAAAAAAGACAAAUCUGCCACAAAGCUUGAGAGCAACUUCGGGUGCAGAGGCGUCAGCCUUCGGUGGCGAGAUAGCGCCAACGUUCUCGACUAUGACACGCAAAACGCGUGCUCCGUUGAAUGGAGUUUAUCAUG [U53A A60G G71U C87A A106G]
GGAUCUUCUCGAUCUAACAAAAAAGACAAAUCUGCCACAAAGCUUGAGAGCAACUUCGGAUGCGGAAGCGGCAGCUUCCGGUGGCGCGAUCGCGCAAACGUUCUCAACUAUGAUACGCAAAACGCGUGCUCCCUUGAAUGGAGUUUAUCAUG [U53A A64G G67A C76U U78C A91C C96A C114U G133C]
GGAUCUUCUCGAUCUAACAAAAAAGACAAAUCUGCCACAAAGCUUGAGAGCAACUUCGGAUGCAGGGACGGCAGCCUUCGGUGGUGCGAUAGCGCCAACGUUCUCAACUAUGACGCGCAUAACGCGUGCUCCGUUGAAUGGAGUUUAUCCUG [U53A A66G G68A C85U A115G A120U A150C]
GGAUCUUCUCGAUCUAACAAAAAAGACAAAUCUGCCACAAAGCUUGAGAGCAACUUCGGAUGCAGAGGCGGCUGCCUUCGGUGGCGCGAUAGCGCCAACGUUCUCAACUAUGACACGGAAAACGCGUGCUCCGUUGAAUUGAGUUUAUCAUG [U53A A73U C118G G140U]
GGAUCUUCUCGAUCUAACAAAAAAGACAAAUCUGCCACAAAGCUUGAGAGCAACUUGGGAUGCAGAGGCGGCAGCCUUCGGUGGAGCGGUAGCGCCAACGUUCUCAACUAUGACACGCAAAACGCGUGCUCCGUUGAAUGGAGUUUAUCAUG [U53A C57G C85A A89G]
GGAUCUUCUCGAUCUAACAAAAAAGACAAAUCUGCCACAAAGCUUGAGAGCAACUUUGGAUGCAGAGGCGGCAGCCUUCGGUGUCGCGAUAGCGCCAACGUUCUCAACUAUGACACGCAAAACGCGUGCUCCGUUGAAUGGAGUUUAUUAUU [U53A C57U G84U C149U G152U]
GGAUCUUCUCGAUCUAACAAAAAAGACAAAUCUGCCACAAAGCUUGAGAGCAACUUCGGAUGAAGAGGCGGCAGCCUUCGGUGGUGCGAUAGGGCCAACGUUCUCAACUAUGACACGCAAAACGCGUGCUCUGUUGAAUGGAGUUUAUCAUG [U53A C63A C85U C93G C132U]
GGAUCUUCUCGAUCUAACAAAAAAGACAAAUCUGCCACAAAGCUUGAGAGCAACUUCGGAUGUAGAGGCGGCAGCCUUCGGUGGAGCGAUAGCGCCAACGUUCUGAACUAUGACACGCAAAACGCGUGCUGCGUUGAAUGGAGUUUAUCAUG [U53A C63U C85A C105G C131G]
GGAUCUUCUCGAUCUAACAAAAAAGACAAAUCUGCCACAAAGCUUGAGAGCAACUUCGGAUGUAAGGGCGGCAGCCUUCGGUGGCCCGAUAGCGCCAACGUUCUCAACUAUGACACCCAAAACGCGUGCUCCGUUGAAUGGAGUGUAUCAUG [U53A C63U G65A A66G G86C G117C U145G]
GGAUCUUCUCGAUCUAACAAAAAAGACAAAUCUGCCACAAAGCUUGAGAGCAACUUCGGAUGCAGAGGAGGCAGCCUUCGGUAGCGCGAUGGCGCCAACGCUCUCAACUAUGACACGCAAAACUCGUGCUCCGUUGAAUGGAGUUUAUCAUG [U53A C69A G83A A91G U101C G124U]
GGAUCUUCUCGAUCUAACAAAAAAGACAAAUCUGCCACAAAGCUUGAGAGCAACUUCGGAUGCAGAGGUGGCAGCCUUCGGUGGCGCGAUAGCGCCAACGUUCUCAACUAUGACACGCAAAACGCGUGCUCCGUUGAAUAGAGUUUAUCAUG [U53A C69U G140A]
GGAUCUUCUCGAUCUAACAAAAAAGACAAAUCUGCCACAAAGCUUGAGAGCAACUUCGGAUGCAGAGGCGGAAGCCUUCGGUGGCGUGAUAGCGCCAAUGCUCUCAACUAUGACACGCAAAACGCGUGCUCCGUUGUAUGGAGUUUAUCAUG [U53A C72A C87U C99U U101C A137U]
GGAUCUUCUCGAUCUAACAAAAAAGACAAAUCUGCCACAAAGCUUGAGAGCAACUUCGGAUGCAGAGGCGGCAGUCUUCGGUGGCGUGAUAGCGCCAAUGUUCUCAACUAUGACACGCAAAACGCGUGCUCCGUUGAACGGAGUAUAUCGUG [U53A C75U C87U C99U U139C U145A A150G]
GGAUCUUCUCGAUCUAACAAAAAAGACAAAUCUGCCACAAAGCUUGAGAGCAACUUCGGAUGCAGAGGCGGCAGCAUUCGGUGGCGGGAUAGCGCCAACGUUCUCAACUAUGACACGCAAAACGGGUGCUCCGUUGAAUGGAGUUUAUCAUG [U53A C76A C87G C125G]
GGAUCUUCUCGAUCUAACAAAAAAGACAAAUCUGCCACAAAGCUUGAGAGCAACUUCGGAUGCAGAGGCGGCAGCCUUCGGUGGCGCGAUAGGGCCAACGUUCUCAACUAUGACUCGCAAAACGCGUGCUCCGUUGAAUGGAGUUUAUCAUG [U53A C93G A115U]
GGAUCUUCUCGAUCUAACAAAAAAGACAAAUCUGCCACAAAGCUUGAGAGCAACUUCGGAUGCAGAGGCGGCAGCCUUCGGUGGCGCGAUAGCGCCAACGUUCUCAACUAUGACACGCAAAAUGGGUACUCCGUUGAAUGGAGUUUAUCAUG [U53A C123U C125G G128A]
GGAUCUUCUCGAUCUAACAAAAAAGACAAAUCUGCCACAAAGCUUGAGAGCAACUUCAGAUGCAGAGGCGGCAGCCUUCGGUGGCGCGAUAGCGCGAACGUUGUCAACUAUGACUCGCAAAACGCGUGCUCCGUUGAAUGGAGUUUAUCAUG [U53A G58A C96G C103G A115U]
GGAUCUUCUCGAUCUAACAAAAAAGACAAAUCUGCCACAAAGCUUGAGAGCAACUUCGCAGGCAGAGGCGGCAGCUUUCGAUGGCGCGAUAGCGCCAACGUUCGCAACUAUGACACGCAAAACGCGUGCUCCGUUGAAUGGAGUUUAUCAUG [U53A G59C U61G C76U G81A U104G]
GGAUCUUCUCGAUCUAACAAAAAAGACAAAUCUGCCACAAAGCUUGAGAGCAACUUCGCAUGCAGAGGCGGCAGCCGUCGGUGGCGCGAGAGCGCCAACGUUCUCAACUAUGACACGCGAAACGCGUGCUCCGUUGAAUGGAGUUUAUCAUG [U53A G59C U77G U90G A119G]
GGAUCUUCUCGAUCUAACAAAAAAGACAAAUCUGCCACAAAGCUUGAGAGCAACUUCGGAUGCAAAGGCGGCAGCCAUCGGUGGCGCUAUACCGCCAACGUUCUCAACUAUGACACGCAAAACGCGUGCUCCGUUGAAUGGAGUUUAUCAUG [U53A G65A U77A G88U G92C]
GGAUCUUCUCGAUCUAACAAAAAAGACAAAUCUGCCACAAAGCUUGAGAGCAACUUCGGAUGCAUAGGCGGCAGCCUUCGGUGGGGCGAUAUCGCCAACGUUCUGAACUAUGACACGCAAAAGGCGUGCUCCGUUGAAUGGAGUUUAUCCAG [U53A G65U C85G G92U C105G C123G A150C U151A]
GGAUCUUCUCGAUCUAACAAAAAAGACAAAUCUGCCACAAAGCUUGAGAGCAACUUCGGAUGCAGAGGCCGCAGCCUUCGGUGGCCCGAUAGCGCCAACGUUCUCAACUAUGACACGCAAAUCGUGUGCUCCGUUGAAUGGAGUUUAUCAUG [U53A G70C G86C A122U C125U]
GGAUCUUCUCGAUCUAACAAAAAAGACAAAUCUGCCACAAAGCUUGAGAGCAACUUCGGAUGCAGAGGCCGCAGCCGUCGGUGGCGCGAUAGCGCCAACGUUCUCAACUAUGACACGCAAAACGCGUGCUCCGUUGAAUGGAGUUUAUCAUG [U53A G70C U77G]
GGAUCUUCUCGAUCUAACAAAAAAGACAAAUCUGCCACAAAGCUUGAGAGCAACUUCGGAUGCAGAGGCGGCAACCUUCGGUGGCGGGAUUGCGCCAACGUUCUGAACUAUGACCCGCAAAACGCAUGCUCCGUUGAAUGGAGUUUAUCAUG [U53A G74A C87G A91U C105G A115C G126A]
GGAUCUUCUCGAUCUAACAAAAAAGACAAAUCUGCCACAAAGCUUGAGAGCAACUUCGGAUGCAGAGGCGGCAGCCUUCGCUGACGCGAUAGCGCCAACGUUCUCGACUAUUACACGCAAAACGCGUGCUCCGUUGAAUGGAGUUUAUCAUG [U53A G81C G84A A106G G112U]
GGAUCUUCUCGAUCUAACAAAAAAGACAAAUCUGCCACAAAGCUUGAGAGCAACUUCGGAUGCAGAGGCGGCAGCCUUCGGUAGCGCGAUAGCGCCAUCGGUCUCAACUAUGACACGCAAAACGCGUGCUACGUUGAAUGGAGUAUAUCAUG [U53A G83A A98U U101G C131A U145A]
GGAUCUUCUCGAUCUAACAAAAAAGACAAAUCUGCCACAAAGCUUGAGAGCAACUUCGGAUGCAGAGGCGGCAGCCUUCGGUGGCACGAGAGCGCCAACGUUCUCACCUAUGACACGCAAAACGCGUGCUCCUUUGAAUGGAGUUUAUCAGG [U53A G86A U90G A107C G133U U151G]
GGAUCUUCUCGAUCUAACAAAAAAGACAAAUCUGCCACAAAGCUUGAGAGCAACUUCGGAUGCAGAGGCGGCAGCCUUCGGUGGCUCGAUAGCGCCAAGGUUCUGAACCAUGACACGUAAAACGCGUGCUCCGAUGAAUGGAGUUUAUCAUG [U53A G86U C99G C105G U109C C118U U134A]
